# ± gives the standard deviation of the averaged measurements. This is one part of the list.
# Test system: PfAP2-LT AP2 domain (GST-tagged)
# Experiment: gcPBM binding intensity (ln(normalized median fluorescence intensity)); higher = stronger DNA binding
# In short: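 Binding intensity is the highest Masliner-normalised natural-log median intensity over replicate spots in either probe orientation. To obtain it, GST-tagged P. falciparum DNA-binding domains made in E. coli were incubated for 1 h on an Agilent 4 × 180k array of primer-extended double-stranded 36-bp intergenic genomic probes plus negative controls. Detection used Alexa488 anti-GST antibody with scanning at 488 nm.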
row,Sequence,gcPBM binding intensity (ln)
1,TTATTTCGAAGAAAATGTACATATATAAATATATAC [XGTACX_site3308],8.47 ± 0.42
2,ATAATATTTTTTAATTGTACGTTCCATTTTTTTAAA [XGTACX_site1227],8.68 ± 0.43
3,CAACAATTTCGTCATACACACATTCAGAATATAGAT [CACACA_site7166],9.06 ± 0.33
4,ATAATAAAAATATATACATGCATTATTATATATATA [TGCATGCA_site799],8.63 ± 0.33
5,ATATATAATTATTGAAGTACTTGTTCATAAAATGGT [XGTACX_site5656],8.69 ± 0.42
6,TATATGAGCATAAAGACACACAAATAAAACCAAACA [CACACA_site3856],9.18 ± 0.45
7,AAAATAAAATGAAAACGTACATGATAAATTTTAATT [XGTACX_site4199],8.91 ± 0.42
8,ATATTATAAATATAATGTACGTTTTAATTTCATGTT [XGTACX_site3557],8.8 ± 0.46
9,ATAACTAATATGAAATGTACCCATCAAAGTGTGCAT [XGTACX_site4463],8.85 ± 0.38
10,TACTACACACATTCATGTACTTGATAAATTAATGAT [XGTACX_site6444],9.04 ± 0.42
11,TAATTTGTTATTTATTGTACAAACATTATATGTTAA [XGTACX_site6637],8.51 ± 0.38
12,AAAATTAAAATACGTACACACCTTATCTTTTTGGCT [CACACA_site4311],9.04 ± 0.52
13,AGAACAATTCTGTGGTGTACCAAAAAAAATTTAATT [XGTACX_site8082],8.99 ± 0.33
14,TAAATGAATTTTACTATACACACGTATACATTTGTA [CACACA_site1210],9.01 ± 0.42
15,ATATTTAAATTTTGCACACGCATATGAAATTAGGAC [CACACA_site1035],9.01 ± 0.28
16,AAAATAAATAAATATACACACCATATTTATATTTTT [CACACA_site7361],8.88 ± 0.37
17,CTATGAATAGGAAAAAGTACTAAACCTTTATATATA [XGTACX_site5022],8.59 ± 0.42
18,ATTTTGCCTGACCCATGTACATATTATTTTTTGCAT [XGTACX_site2258],9.33 ± 0.44
19,CACATAAAAATTGTGTTGCACTTTTATTCTTATATC,8.98 ± 0.5

row,Sequence,gcPBM binding intensity (ln)
1,AGTAGAATATCCCCTACACACCCAAATAATTTACAA [CACACA_site8339],9.25 ± 0.38
2,TAACTTAATATTAATGCACACAATTTATATATATAT [CACACA_site3903],8.9 ± 0.33
3,TCAAATATTCATAAATGTACATTTATTTTTCTCCTT [XGTACX_site5827],8.79 ± 0.53
4,AACTTACTTGGACATACACACATATATATATATATA [CACACA_site2978],9.78 ± 0.3
5,TTTATATATTTTAGGTGTACATAAATTTTTATATAT [XGTACX_site5597],8.6 ± 0.45
6,GAAACATACATTTTTTGTCCGTAAGTATTATAATAA [XGTACX_site3273],8.65 ± 0.44
7,ATACATCAAGGACACACACACACACCCACACCCACA [CACACA_site8013],10.4 ± 0.27
8,AATGCAAAGGTGAAAGAACACACAAAAAAAAAAAAA [CACACA_site9333],9.03 ± 0.69
9,GTGTTAAATTTTTGAACATGCAAGTTTTATTATTGA [TGCATGCA_site478],8.54 ± 0.48
10,CATAGACACGAACATACACACGGACATACATACGGA [CACACA_site8101],9.5 ± 0.35
11,TTTTGTTGAAAAAAAAAAAAAAAATTAAATTAAATT [GTGCAC_negctrl_site636],7.97 ± 0.52
12,GTAACAAATTAATAGTGTACATATTTTAAAAAAATA [XGTACX_site7150],8.74 ± 0.45
13,ATATGATAGTTTATATGTACATAAATAAATACATAC [XGTACX_site2917],8.93 ± 0.46
14,ATTAATAATTATTATGGTACACATGTAACTACTCTC [XGTACX_site198],8.89 ± 0.55
15,ATCTCTTACATATTCACACACATATAAATAACTACA [CACACA_site6816],9.15 ± 0.41
16,AAAGAAAAAAAATAATGTACATATGTATTTGAGAAA [XGTACX_site3571],8.91 ± 0.6
17,AAAAAAATAAAACACATACATATATGTATATATATA [GTGCAC_negctrl_site390],8.88 ± 0.44
18,TTCTAAAATTATATAGTGCAATTATTTTATTTTTCT,8.48 ± 0.54
19,TAAATATATATATAAGTGCATTATATATATATATAA,8.74 ± 0.34

row,Sequence,gcPBM binding intensity (ln)
1,ATAAATCCCAAAACCTTGCAAGACAACGTTTGATCA [CACACA_negctrl_site1327],8.61 ± 0.37
2,CTATATAAAAAAATTGCACACATAAATATATACATA [CACACA_site8325],9.01 ± 0.39
3,TGTAGAAGAACCCATGCATGCAGTATGAAAAAAAAA [TGCATGCA_site907],9.05 ± 0.35
4,AAAAAAAGAAAAAAACGTACATGAAAATTTTTTGTT [XGTACX_site5135],8.96 ± 0.42
5,TTATGTATTTATTTATGTACTAATTGTATGCATATT [XGTACX_site6436],8.96 ± 0.4
6,CATATACATAGACACACACACACATAAATAAATATA [CACACA_site6749],9.91 ± 0.33
7,TTTCCTGGTCAAGGGGTTACGGTTACGTCCTCTTGC [CACACA_negctrl_site856],8.82 ± 0.4
8,ATTTGTATATATAATTGTACGCATATTCTATACGAT [XGTACX_site7367],8.94 ± 0.4
9,ATACTTTATAAATACTAAAGTGTATTTTGTAATATA [CACACA_negctrl_site1710],8.53 ± 0.45
10,CATACATACATACATACACACATATATAAATATATG [CACACA_site7028],9.34 ± 0.42
11,TAAGTGATCGCATAATGTACATATTATTTATTATTT [XGTACX_site3061],8.8 ± 0.37
12,TACATTTAAAAAAAAACACACATATTTATATTTATA [CACACA_site7236],8.48 ± 0.53
13,GGAAGGATATAACATACACACACACCCATATATATA [CACACA_site9376],9.76 ± 0.33
14,TACTTTCACATTAAATGTACGTATAGTTTCATTCTT [XGTACX_site8528],8.99 ± 0.46
15,ATATTAAAAATATATACACACATATATATAAATATA [CACACA_site2257],8.88 ± 0.42
16,ATAAATATGGAGCACACACACATAAACATACAGATA [CACACA_site4395],9.84 ± 0.38
17,TTTGGAGAATTCATAGTGCATTTATTTATTGTTAAT,8.68 ± 0.37
18,TATATTTAAGTACATAAATAAGCCCATTTACATACA [CACACA_negctrl_site1224],8.57 ± 0.35
19,AAAAATATGAAAGTAACTAAGTTGTTATTGATAACA [CACACA_negctrl_site1608],8.63 ± 0.55
